Assay results reported in PubChem BioAssay AID686979 (National Center for Advancing Translational Sciences (NCATS), 2013).
Hit rate of the full screen: of about 420,000 compounds, about 50,000 (12%) were called active. Inconclusive means that the source gave no clear call. Such entries were picked first, then a sample of the others. The call rests on the fitted dose curve; in most records, active means well fitted inhibition curve with a large enough effect; inconclusive means small, poorly fitted or top-dose-only effect; inactive means flat fitted curve, though single readings scatter. No potency is given beside an inconclusive call; the fits are too rough.
On the % scale 0 is the no-effect control and ±100 the full control effect; potency means the concentration at half of the fitted maximal effect; tags describe the fitted curve by direction and shape.

Assay: qHTS for Inhibitors of human tyrosyl-DNA phosphodiesterase 1 (TDP1): qHTS in cells in presence of CPT; further: nearly all actives have a fitted effect of over 55% in size
Settings: chicken DT40 Tdp1-/-;hTDP1 cells + 20 nM CPT, ATP luminescence, 48 h; activity change, negative = growth inhibition: at 46.2 µM (top of the series) unless noted
How it was run: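 Chicken DT40 Tdp1-/- cells complemented with human TDP1, 400 cells/well, exposed to compounds plus 20 nM camptothecin for at least 48 h at 37 C; viability read as ATP content by CellTiter-Glo luminescence.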
For `COc1ccccc1CNC(=O)CCCn1c(=O)c2cccn2c2ccccc21`, the Potency was inconclusive [inhibitor, single point].
With `COc1ccc(-c2cc(C(=O)Nc3ccc(S(=O)(=O)Nc4onc(C)c4C)cc3)c3ccccc3n2)cc1` the Potency was “inactive”.
For `CCN1CCN(CCCNC(=O)c2ccc3c(c2)N(Cc2ccc(C)cc2)CCS3)CC1`, the Potency was inconclusive [inhibitor, single point].
In the case of `CCOc1ccc(Nc2nc(N)c([N+](=O)[O-])c(N3CCN(C)CC3)n2)cc1`, the Potency is reported as inconclusive [inhibitor, single point].
With `COc1ccccc1C(=O)NNC(=O)C(=O)NC(C)(C)C` the Potency was inconclusive [inhibitor, single point].
For `COc1ccc(N2CCN(C(=O)CSc3nc4ccccc4c(=O)[nH]3)CC2)cc1`, the Potency was inconclusive [inhibitor, single point].
With `COc1ccc(-c2nc(SCC(=O)Nc3cccc(C(C)=O)c3)n[nH]2)cc1` the Potency was inconclusive [inhibitor, single point].
In the case of `CCN1C(=O)CC2CCCC1C2` (stereo unspecified), the Potency is reported as “inactive”.
For `COc1ccc(S(=O)(=O)N2CCN(C(=O)N3CCOCC3)C2C)cc1` (stereo unspecified), the Potency was “inactive”.
For `Cn1c(CNC(=O)c2ccc(F)cc2)cc2ccccc21`, the Potency was “inactive”.
In the case of `Cc1nnc(NC(=O)c2ccc3c(c2)C(=O)N(CC2CCCO2)C3=O)s1` (stereo unspecified), the Potency is reported as “inactive”.
For `COc1cccc(CN2CCN(C(=O)c3ccc(-c4ccccc4)cc3)CC2)c1`, the Potency was inconclusive [inhibitor, single point].
For `COc1ccc(Cc2nc3ccc(C(=O)NCc4cc(Br)ccc4OC)cc3o2)cc1`, the Potency was inconclusive [inhibitor, single point].
In the case of `Cc1ccc(S(=O)(=O)N2CCC(C(=O)OCC(=O)N(C)C3CCS(=O)(=O)C3)CC2)cc1C` (stereo unspecified), the Potency is reported as “inactive”.
In the case of `CC(C)c1ccc(NC(=O)CCc2ccccc2)cc1`, the Potency is reported as inconclusive [inhibitor, single point].
With `N#Cc1ccccc1S(=O)(=O)N1CCC(Oc2ccc(-n3cnnn3)cc2)CC1` the Potency was inconclusive [inhibitor, partial curve, poor fit].
In the case of `CCOC(=O)C1(Cc2cccc(OC)c2)CCCN(Cc2nccn2CC)C1` (stereo unspecified), the Potency is reported as active: 14.6 µM.
With `Fc1ccc(-c2noc3ncnc(N4CCCCC4)c23)cc1` the Potency was active: 18.4 µM.
In the case of `Cc1ccc(C(=O)c2cn(-c3ccc(F)c(Cl)c3)nn2)cc1`, the Potency is reported as inconclusive [inhibitor, single point].
For `CC(C)C(C(=O)NCc1ccccc1)N(C)Cc1ccc(Cl)c(Cl)c1` (stereo unspecified), the Potency was inconclusive [inhibitor, single point].
For `Oc1nc(Nc2cccc(Cl)c2)sc1/C=C1\C=Nc2ccccc21`, the Potency was inconclusive [inhibitor, single point].
For `CN=C(Nc1cccc(OC)c1)SC1CC(=O)N(c2ccc(C(=O)O)cc2)C1=O` (stereo unspecified), the Potency was “inactive”.
With `COc1ccc(C(CCNC(C)c2ccccc2)C(C)C)cc1` (stereo unspecified) the Potency was inconclusive [inhibitor, single point].
For `COCc1c(C(=O)N2CCN(C3CCCC3)CC2)cnn1-c1nccc(-c2cc(C)sc2C)n1`, the activity change, negative = growth inhibition was inactive: 5% [at 9.04 µM].
In the case of `C=CCOC(=O)C(=O)/C=C/c1coc2ccccc2c1=O`, the Potency is reported as inconclusive [inhibitor, partial curve, poor fit].
For `CCOC(=O)c1c(NC(=O)CS(=O)(=O)c2ccc(Cl)cc2)sc2c1CCCC2`, the Potency was inconclusive [inhibitor, single point].
For `COc1ccc(CCC(=O)NCc2nc3cccnc3n2Cc2ccc(OC)cc2)cc1`, the Potency was “inactive”.
In the case of `Cc1ccc(OCc2cc(C(=O)N3CCc4[nH]cnc4C3c3ccccn3)no2)cc1C` (stereo unspecified), the Potency is reported as inconclusive [inhibitor, single point].
For `CCn1c2ccccc2c2cc(/C=N/O)ccc21`, the Potency was inconclusive [inhibitor, single point].
In the case of `C=CCOc1ccc(/C=C/C(=O)OCC(=O)NCc2ccco2)cc1`, the Potency is reported as “inactive”.
With `O=C(C#Cc1ccccc1)c1ccco1` the Potency was active: 1.3 µM.
For `COc1ccccc1N(C)C(=O)Cn1c(=O)oc2cc(S(=O)(=O)N3CCCC3)ccc21`, the Potency was inconclusive [inhibitor, single point].
In the case of `CN1C(=O)NC(c2cccc([N+](=O)[O-])c2)C2=C1CC(C)(C)CC2=O` (stereo unspecified), the Potency is reported as “inactive”.
With `COc1ccc(NC(=O)CN(c2ccc(F)cc2)S(=O)(=O)c2ccccc2)c(OC)c1` the Potency was inconclusive [inhibitor, single point].
With `O=C1[C@H]2[C@H](C=CC[C@H]2C(=O)N2CCOCC2)CCN1Cc1ccc(Cl)c(Cl)c1` the Potency was inconclusive [inhibitor, single point].
In the case of `COc1ccc2c(c1)OC/C(=C/c1ccc(OC)c(OC)c1)C2=O`, the Potency is reported as inconclusive [inhibitor, single point].
With `CN(CCOc1ccccc1)C(=O)c1ccc(F)c(S(=O)(=O)N2CCOCC2)c1` the Potency was “inactive”.
With `CN(C(=O)CN1C(=O)NC(C)(CCc2ccccc2)C1=O)c1ccccc1` (stereo unspecified) the Potency was “inactive”.
With `Cc1ccc(S(=O)(=O)N2CCN(C(=O)CCc3c[nH]c4ccccc34)CC2)c(C)c1` the Potency was inconclusive [inhibitor, partial curve].
For `CCc1nc2ccc(C(=O)N(C)Cc3ccccc3)cn2c1N(CC)Cc1cccc(Br)c1`, the Potency was inconclusive [inhibitor, single point].
With `Cc1noc(C)c1COc1cccc(C(=O)OC(C)C#N)c1` (stereo unspecified) the Potency was inconclusive [inhibitor, single point].
For `O=C(Cc1cccc2ccccc12)Nc1nc2ccccc2[nH]1`, the Potency was inconclusive [inhibitor, single point].
With `O=[N+]([O-])c1ccccc1Oc1ncccc1[N+](=O)[O-]` the Potency was “inactive”.
With `CCOC(=O)c1c(NC(=O)c2cc(=O)c3c(C)cc(C)cc3o2)sc2c1CCC2` the Potency was “inactive”.
For `O=C(NCCCN1CCOCC1)c1c(F)c(F)c(F)c(F)c1F`, the Potency was “inactive”.
In the case of `CO/N=C/C(C#N)=C/c1ccc(OC)cc1`, the Potency is reported as “inactive”.
